Laboratory results reported in PubChem BioAssay AID1476 (National Center for Advancing Translational Sciences (NCATS), 2009).
“And” between values parts separate entries of the source, which are not always exact repeats. Equal entries are not always repeated. Screen size: about 200,000 compounds; about 4,500 (2.2%) were called active. This list was built around the results that the source calls inconclusive (neither active nor inactive); the mix of calls is not that of the screen. The call rests on the fitted dose curve; in most records, active means well fitted inhibition curve with a large enough effect; inconclusive means small, poorly fitted or top-dose-only effect, or effect the other way; inactive means flat fitted curve, though single readings scatter. Potencies of inconclusive entries are doubtful fits and often do not repeat.
Further: nearly all actives have a fitted effect of over 40% in size.
Potency means the concentration at half of the fitted maximal effect; tags describe the fitted curve by direction and shape.
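Wherever max response, negative = inhibition is given: plate controls were enzyme without inhibitor for no effect and buffer without enzyme for full effect.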

What follows are compounds tested against Cruzipain (Trypanosoma cruzi) (UniProt P25779) (assay: qHTS Assay for Promiscuous and Specific Inhibitors of Cruzain (without detergent)). Details: purified cruzain, Z-FR-AMC fluorescence, no detergent.
UniProt P25779, sequence (P25779 whole entry, looked up): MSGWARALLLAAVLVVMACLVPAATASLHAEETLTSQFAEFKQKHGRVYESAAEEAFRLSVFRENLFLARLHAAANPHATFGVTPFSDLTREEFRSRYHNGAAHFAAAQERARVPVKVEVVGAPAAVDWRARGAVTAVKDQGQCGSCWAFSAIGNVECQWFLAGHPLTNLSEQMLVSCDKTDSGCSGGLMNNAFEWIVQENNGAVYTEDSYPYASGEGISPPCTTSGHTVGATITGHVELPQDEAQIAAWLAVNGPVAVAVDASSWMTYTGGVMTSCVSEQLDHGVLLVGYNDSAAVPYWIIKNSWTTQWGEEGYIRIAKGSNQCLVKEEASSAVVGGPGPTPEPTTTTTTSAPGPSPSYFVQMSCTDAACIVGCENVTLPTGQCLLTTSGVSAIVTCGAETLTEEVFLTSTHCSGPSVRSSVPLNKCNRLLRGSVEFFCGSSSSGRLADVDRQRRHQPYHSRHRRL
In short: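 Purified cruzain at 1.5 nM, pre-incubated 15 min with compound at room temperature in 100 mM sodium acetate pH 5.5, 5 mM DTT, 0.00005% Triton X-100. Reaction started with 2 uM Z-FR-AMC; AMC fluorescence increase over 60 s gives rate.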
With CCCCNC(=O)c1[nH]c2ccccc2c1Sc1ccc(C)cc1 the Potency was inconclusive: 25.1 µM [activator, partial curve].
In the case of Cc1ccc(C)n1-c1sccc1C(=O)O, the Potency is reported as inconclusive: 31.6 µM [activator, single point].
Clc1ccc(-c2csc(N/N=C/c3ccc4c(c3)OCO4)n2)cc1 was tested, and the Potency was inconclusive: 39.8 µM [inhibitor, single point].
With O=C(COC(=O)/C=C/c1cccc(C(F)(F)F)c1)Nc1cccc2ccccc12 the Potency was inconclusive: 3.16 µM [inhibitor, full curve].
For CCOc1cc(NC(=S)Nc2ccccc2)c(OCC)cc1NC(=O)c1ccc(OC)cc1, the Potency was active: 15.8 µM.
With COc1cc(OC)c(NC(=O)CCn2cnc3onc(-c4ccc(F)cc4)c3c2=O)cc1Cl the max response, negative = inhibition was inactive: 1.99%.
O=C(c1nc2ccc([N+](=O)[O-])cc2[nH]c1=O)[C@@H](O)c1ccc2c(c1)OCO2 was tested, and the max response, negative = inhibition was inactive: -5.15%.
For OCCN1CCN(C(=S)c2ccc(Cl)c(Cl)c2)CC1, the Potency was active: 25.1 µM.
With CC(=O)c1cccc(NC(=O)c2nc(-c3ccc(C)cc3)n3c2CCCCC3)c1 the max response, negative = inhibition was inactive: -6.74%.
With Cc1ccc(NC(=O)C(=O)NCc2ccc(Cl)cc2)cc1 the Potency was inconclusive: 6.31 µM [inhibitor, single point].
For CN=C1SC(CC(=O)Nc2sc3c(c2C#N)CCCC3)C(=O)N1C (stereo not drawn), the Potency was inconclusive: 31.6 µM [activator, single point].
In the case of Cc1ccc(S(=O)(=O)Nc2cccc(-c3ccc(N4CCCCC4)nn3)c2)s1, the Potency is reported as inconclusive: 39.8 µM [inhibitor, single point].
Cc1ccc(C2c3[nH]c4ccccc4c3CCN2C(=O)Nc2ccc(C)c(C)c2)cc1 (stereo not drawn) was tested, and the Potency was inconclusive: 39.8 µM [inhibitor, single point].
In the case of CCOc1ccccc1C(=O)NCc1ccc2c(c1)CCN2C(C)=O, the max response, negative = inhibition is reported as inactive: 0.847%.
In the case of COC(=O)c1c(NC(=O)c2c(-c3ccccc3Cl)noc2C)sc2c1CCC2, the Potency is reported as active: 12.6 µM.
In the case of CC(C)N1C(=O)S/C(=C/c2ccc3c(c2)n(C)c(=O)n3C)C1=O, the Potency is reported as inconclusive: 39.8 µM [activator, single point].
COc1ccc(C(=O)NCCc2sc(-c3ccc(F)cc3)nc2C)cc1OC was tested, and the Potency was inconclusive: 39.8 µM [activator, single point].
CCc1ccc(C2Sc3ccccc3NC3=C2C(=O)c2ccccc23)cc1 (stereo not drawn) was tested, and the Potency was inconclusive: 31.6 µM [inhibitor, single point].
With CCCOc1ccc(C(=O)CCNc2ccc(C)c(Cl)c2)cc1 the Potency was inconclusive: 25.1 µM [inhibitor, single point].
In the case of CCOC(=O)N1CCN(Cc2nc(-c3ccc(Cl)cc3)no2)CC1, the Potency is reported as inconclusive: 31.6 µM [activator, single point].
COc1cc(NS(=O)(=O)c2ccc(NC(=O)COc3ccccc3Cl)cc2)nc(OC)n1 was tested, and the Potency was inconclusive: 39.8 µM [activator, single point].
With CCCN(CC(=O)c1cc(C)n(C)c1C)S(=O)(=O)c1cccc(C(F)(F)F)c1 the Potency was inconclusive: 39.8 µM [activator, single point].
For COc1ccc(-c2cc3ccccc3c(=O)o2)cc1, the max response, negative = inhibition was inactive: 22.9%.
For COc1cc2c(cc1O)CCN(C(=O)c1ccco1)C2C (stereo not drawn), the max response, negative = inhibition was inactive: -5.49%.
For Cc1c(NC(=O)c2ccc(N3CCCC3)c([N+](=O)[O-])c2)cccc1-c1nc2ccccc2s1, the Potency was active: 7.94 µM.
Cn1c(=O)[nH]c(=O)c2c1nc(CN1CCN(c3ccc(F)cc3)CC1)n2CCCc1ccccc1 was tested, and the Potency was inconclusive: 39.8 µM [activator, single point].
CCOC(=O)Cc1csc(NC(=O)c2c(O)c3ccccc3n(C)c2=O)n1 was tested, and the Potency was inconclusive: 15.8 µM [activator, partial curve].
Cc1ccc(CNC(=O)CCc2c(C)nc3nc(CNC(=O)OC(C)(C)C)nn3c2C)cc1 was tested, and the max response, negative = inhibition was inactive: 11.1%.
In the case of CCCCCCn1c(N2CCN(c3ccccc3)CC2)nc2c1c(=O)[nH]c(=O)n2C, the Potency is reported as inconclusive: 39.8 µM [activator, single point].
With CCCCC/C=C\C/C=C\C/C=C\C/C=C\CCCC(=O)N[C@H](C)CO the max response, negative = inhibition was inactive: 10.2% and inactive: 6.61%.
In the case of CC(C)c1ccc(-c2nnc3n(CCc4ccccc4)c(=O)c4ccccc4n23)cc1, the max response, negative = inhibition is reported as inactive: -7.55%.
For CC1(C)Cc2c(C#N)c(SCC(=O)c3ccccc3)nc(N3CCOCC3)c2CO1, the Potency was inconclusive: 39.8 µM [activator, single point].
CCN(CC)c1ccc(NC(=O)CSc2nc3ccccc3c(=O)[nH]2)cc1 was tested, and the Potency was inconclusive: 31.6 µM [inhibitor, single point].
Cn1c(=O)n(C)c2cc(CN3C(=O)OC(C)(C)C3(C)O)ccc21 (stereo not drawn) was tested, and the max response, negative = inhibition was inactive: -1.09%.
For COc1ccc(/C=N/n2cnc3scc(-c4cccs4)c3c2=O)cc1OC, the Potency was inconclusive: 31.6 µM [activator, single point].
COc1cc(NC(=O)CN2C(=O)NC(C)(c3ccccc3)C2=O)c(C)cc1[N+](=O)[O-] (stereo not drawn) was tested, and the max response, negative = inhibition was inactive: -11.4%.
With CC(=O)c1cccc(Nc2ccc3cc(S(=O)(=O)N4CCC(C)CC4)ccc3n2)c1 the Potency was inconclusive: 6.31 µM [activator, single point].
With OC[C@H]1NC[C@@H](O)[C@@H](O)[C@H]1O the max response, negative = inhibition was inactive: -4.24%.
With O=S(=O)(c1ccc(N2CCC(c3ccc(Cl)cc3)=N2)cc1)N(CCO)CCO the max response, negative = inhibition was inconclusive: 157% [activator].
In the case of c1ccc(-c2nccc(-c3ccc(-n4cnc5ccccc54)cc3)n2)cc1, the Potency is reported as active: 15.8 µM.
Cc1ccc(C)c(NS(=O)(=O)c2cc(C(=O)Nc3ccccc3-c3ccccc3)ccc2Cl)c1 was tested, and the Potency was inconclusive: 39.8 µM [inhibitor, single point].
With O=C(N/N=C/C=C/c1ccc(Br)cc1)C(O)c1ccccc1 (stereo not drawn) the Potency was inconclusive: 39.8 µM [inhibitor, single point].
With Cn1c(=O)n(C)c2cc([N+](=O)[O-])c(N3CCN(S(=O)(=O)c4ccc(C(C)(C)C)cc4)CC3)cc21 the Potency was inconclusive: 15.8 µM [activator, partial curve].
